Reference: paper PMC4816394, “Structural and Genetic Studies Demonstrate Neurologic Dysfunction in Triosephosphate Isomerase Deficiency Is Associated with Impaired Synaptic Vesicle Dynamics” (PLoS Genetics, 2016)

Target: the molecule itself
Test: SEC; purified TPI diluted to 15 uM in mobile phase, 100 ul injected, elution monitored at 280 nm; peak areas integrated for the relative monomer and dimer populations; dimer to monomers

B1: human triosephosphate isomerase, wild type (hTPI^WT) (enzyme)
chain: not shown
notes: Triosephosphate isomerase, human; also called TIM; source: purified as outlined previously [18]
  percent dimer (dimer:monomer ratio of peak areas): ~80%
